# In PMC4336329 (PLoS ONE, 2015):
# Screen size: about 310,000 compounds; about 14,000 (4.5%) showed an effect of 50% or more. Effects have a minus sign here. The list shows a part of the results.
# Target: human ether-à-go-go-related gene (hERG) potassium channel (human, UniProt Q12809)
# Experiment: primary screen, population patch clamp on CHO cells stably expressing hERG
# 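Further: peak tail current of the secondary pulse compared with the same well before compound.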
# Sequence of human ether-à-go-go-related gene (hERG) potassium channel (Q12809 whole entry, looked up): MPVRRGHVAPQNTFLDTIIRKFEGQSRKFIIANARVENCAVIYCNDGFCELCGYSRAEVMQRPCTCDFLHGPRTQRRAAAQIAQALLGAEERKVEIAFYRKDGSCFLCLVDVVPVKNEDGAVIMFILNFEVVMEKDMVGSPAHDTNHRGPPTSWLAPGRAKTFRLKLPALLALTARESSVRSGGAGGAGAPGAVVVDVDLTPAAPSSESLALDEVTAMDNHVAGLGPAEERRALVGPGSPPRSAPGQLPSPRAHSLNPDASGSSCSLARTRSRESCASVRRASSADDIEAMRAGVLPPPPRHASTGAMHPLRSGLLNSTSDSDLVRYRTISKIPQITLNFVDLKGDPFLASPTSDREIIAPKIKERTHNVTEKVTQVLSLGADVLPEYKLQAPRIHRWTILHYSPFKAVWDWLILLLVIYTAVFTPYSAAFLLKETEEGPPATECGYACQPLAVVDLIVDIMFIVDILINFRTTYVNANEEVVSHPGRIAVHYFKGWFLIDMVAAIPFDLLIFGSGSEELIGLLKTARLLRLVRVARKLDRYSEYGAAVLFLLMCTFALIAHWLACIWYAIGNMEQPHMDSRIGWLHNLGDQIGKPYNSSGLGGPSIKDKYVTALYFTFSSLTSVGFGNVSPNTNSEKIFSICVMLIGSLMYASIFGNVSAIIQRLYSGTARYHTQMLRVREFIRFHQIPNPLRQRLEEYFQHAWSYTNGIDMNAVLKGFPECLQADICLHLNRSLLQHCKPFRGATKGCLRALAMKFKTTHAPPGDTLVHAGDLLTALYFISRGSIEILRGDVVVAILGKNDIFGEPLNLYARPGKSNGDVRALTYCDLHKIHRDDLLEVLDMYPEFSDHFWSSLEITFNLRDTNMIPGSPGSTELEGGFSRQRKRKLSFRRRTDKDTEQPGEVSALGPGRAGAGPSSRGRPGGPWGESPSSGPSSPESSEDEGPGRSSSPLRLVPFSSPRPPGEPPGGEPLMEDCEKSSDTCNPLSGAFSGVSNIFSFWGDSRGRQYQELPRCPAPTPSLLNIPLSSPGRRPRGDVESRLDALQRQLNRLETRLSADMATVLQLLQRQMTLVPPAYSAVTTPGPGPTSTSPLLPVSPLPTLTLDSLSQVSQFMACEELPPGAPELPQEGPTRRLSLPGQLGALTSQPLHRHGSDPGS
row,Structure (SMILES),"hERG current change (%, negative = inhibition) at 10uM"
1,CCOC(=O)C1CCN(C(=O)Nc2ccc(C)c(Cl)c2)CC1,4.97%
2,CCOc1ccc(/C=C/C2=NNC(=O)CC2)cc1,1.19%
3,O=C(CN1CCOCC1)n1c2ccccc2c2ccccc21,-12.4%
4,O=C(C1CCCN(S(=O)(=O)c2ccc(F)cc2)C1)N1CCCC1 (centres unmarked),5.78%
5,CCOC(=O)C(CCCOc1ccccc1)C(=O)OCC,-14.3%
6,O=C(c1ccco1)N1CCC(c2nc3c(nnn3Cc3c(Cl)cccc3Cl)c(=O)[nH]2)CC1,-24%
7,Nc1nn(-c2ccccc2)c2ccc([N+](=O)[O-])cc12,-8.8%
8,CCCCC1CCC(C(=O)N(CC(C)C)c2c(N)n(Cc3ccccc3)c(=O)[nH]c2=O)CC1 (centres unmarked),0.284%
9,C/C(=N\NC(=O)CC(C)C)c1c(C(F)(F)F)[nH]n(-c2nc3ccccc3s2)c1=O,8.88%
10,COc1ccc(NC(=O)CN(c2ccccc2)S(=O)(=O)N(C)C)cc1Cl,14.1%
11,Cc1cc(Cl)ccc1OCC(=O)Nc1cccc(S(=O)(=O)NC2=NCCCCC2)c1,-6.33%
12,CCOC(=O)CSc1nnc(-c2ccc([N+](=O)[O-])cc2)o1,-8.45%
13,CCN(CC)c1cccc(OCC(=O)N(C)CCC#N)c1,18.9%
14,CCNc1nc(N2CCCC2)nc(N2CCCC2)n1,-14.7%
15,COC(=O)CSc1nc(C)c(Oc2ccccc2)c(=O)[nH]1,11.6%
16,Cc1ccc(S(=O)(=O)Nc2ccc(Nc3ccccc3)cc2)cc1,5.3%
17,O=C(NNC(=O)c1cnccn1)c1ccc(Cl)cc1,10.1%
18,C=CCOc1c(Br)cc(CNc2ccc(NC(=O)C(C)C)c(OC)c2)cc1OC,-10.2%
19,CCCc1cc(=O)n2[nH]cc(-c3ccc(Cl)cc3)c2n1,1.83%
20,CCCC(=O)Nc1sc(C(=O)OC)c(C)c1C(N)=O,-35.3%
21,CCOC(=O)c1c(C)c(C(=O)Nc2ccc(F)cc2)c(C)n1C,16.1%
22,CCOc1cc2c(cc1C(C)(C)C)NC(=O)CS2,5.5%
23,COc1ccc(NC(=O)c2ccc([N+](=O)[O-])o2)cc1,11.1%

row,Structure (SMILES),"hERG current change (%, negative = inhibition) at 10uM"
1,CN(/N=C/c1ccc(O)cc1O)c1ncc(C(F)(F)F)cc1Cl,2.45%
2,Cc1c(NS(=O)(=O)c2ccc(N=NN(C)C)cc2)c(=O)n(-c2ccccc2)n1C,-1.97%
3,COc1ccc(CCNC(=O)C2CC3Cn4c(nc5ccccc54)C3N2Cc2ccccc2)cc1 (centres unmarked),-49.7%
4,COc1cc(OC)c(N2CC34C=CC(O3)C(C(=O)O)C4C2=O)cc1Cl (centres unmarked),4.99%
5,CCCC(c1nnnn1CS(=O)(=O)c1ccc(C)cc1)N1CCC(C(N)=O)CC1 (centres unmarked),-27.7%
6,CC1CCN(CCOc2cc(Cl)ccc2Cl)CC1,-33.8%
7,O=C(Nc1ccc(Oc2ccccc2)cc1)C1CCCN(c2ncccn2)C1 (centres unmarked),4.47%
8,CCOC(=O)C1C(=O)C=C(c2cccs2)CC1c1ccccc1C (centres unmarked),3.85%
9,COc1ccc(CNC(=O)C2CCCN(S(=O)(=O)c3ccc4c(c3)C(C)(C)C(=O)N4C)C2)cc1 (centres unmarked),18.3%
10,O=C(Nc1ccc2c3c(cccc13)CC2)c1ccc(Br)o1,7.21%
11,Cc1ccc2nsnc2c1S(=O)(=O)NCc1ccncc1,10.3%
12,CCn1c(CCNC(=O)c2ccc(Cl)cc2)n[nH]c1=S,17.4%
13,Cc1ccccc1C(=O)NC(=S)NC1CCSC1=O (centres unmarked),2.8%
14,O=C(Nc1cccc(Cl)c1)Nc1sccc1-c1nc2ccccc2s1,23.8%
15,N#C/C(=C\c1ccc[nH]1)Sc1nc2ccccc2s1,10.5%
16,Cc1ccc(NC(=O)CC2SC(=O)N(c3ccccc3)C2=O)cc1 (centres unmarked),8.61%
17,Cc1ccc(/C(=N/Nc2ncnc3ccccc23)C(=O)O)cc1,24.6%
18,NC(=O)c1ccccc1NC(=O)c1ccoc1,11.2%
19,COCC1CCN(C(=O)C2CCC(=O)N(C3CCCC3)C2)CC1 (centres unmarked),12.1%
20,Cc1[nH]c(=O)[nH]c(=O)c1S(=O)(=O)Nc1cccc(C(F)(F)F)c1,15.7%
21,O=C(C1=C(O)C(=O)N(CC2CCCO2)C1c1ccc(Cl)cc1Cl)c1ccco1 (centres unmarked),18.5%
22,Cc1c(C(=O)NC2CCCCC2)oc2ccc(F)cc12,17.8%
23,CCCC(=O)C1=C(O)C(C(=O)OC)C(C)(C)CC1=NC (centres unmarked),1.82%

row,Structure (SMILES),"hERG current change (%, negative = inhibition) at 10uM"
1,COc1ccc(NC(=O)c2cnn(-c3ccccc3)c2C)cc1,-4.11%
2,CCc1nnc(NC(=O)C2Cc3ccccc3CN2S(=O)(=O)CC)s1 (centres unmarked),-0.0496%
3,O=C1c2ccccc2C(Nc2cccnc2)N1Cc1ccc2c(c1)OCO2 (centres unmarked),-24.3%
4,CN(CCc1ccccn1)C(=O)CCC1CCCN(C(=O)NC2CCCCC2)C1 (centres unmarked),17.4%
5,O=C(N/N=C\c1ccc(COc2ccc([N+](=O)[O-])cc2)o1)c1cccc(Cl)c1,4.17%
6,Cn1c(SCc2cc(=O)[nH]c(C(C)(C)C)n2)nnc1C(F)(F)F,2.84%
7,CCCn1c(N)c(C(c2ccc(C(=O)OC)cc2)N2CCN(c3ccccc3)CC2)c(=O)[nH]c1=O (centres unmarked),-9.93%
8,CCC(c1nnnn1Cc1ccccc1)N1CCN(c2ccc(OC)cc2)CC1 (centres unmarked),-14.5%
9,COc1cccc(NC(=O)C2CCN(S(=O)(=O)c3ccc4c(c3)N(C(C)=O)CCO4)CC2)c1,8.52%
10,C(=N\N1CCN(Cc2ccccc2)CC1)/c1cccnc1,-0.236%
11,O=C(Nc1cc(=O)[nH]c2ncnn12)c1ccccc1F,11%
12,Cc1oc(-c2cccc(Cl)c2)nc1CS(=O)(=O)CC(=O)NCc1ccco1,-28.2%
13,COc1ccc(CC(NC(C)=O)C(=O)NC2CCN(c3c4c(nc5ncnn35)CCC4)CC2)cc1OC (centres unmarked),8.39%
14,O=C(c1n[nH]c(=O)c2ccccc12)N1CCN(c2ccccc2Cl)CC1,-27.5%
15,COc1ccc(NC(=O)c2cccnc2Cl)c(S(=O)(=O)N2CCOCC2)c1,-3.91%
16,Cc1[nH]nc(SCC(=O)NCc2ccccc2)c1[N+](=O)[O-],-0.419%
17,Cc1ccc(Cl)cc1NC(=O)CSC(N)=O,9.69%
18,O=C(O)c1ccccc1C(=O)c1ccc(-c2ccccc2)cc1,17.2%
19,COc1ccc(N(CC(=O)NCC2CCCO2)S(=O)(=O)c2ccc(C)cc2)cc1OC (centres unmarked),-3.96%
20,Cc1ccc(NC(=O)CCn2c(=O)c3cccn3c3ccccc32)c(C)c1,-31%
21,COc1ccc(NC(=O)CC2(Cc3ccccc3)CCOC(C)(C)C2)cc1 (centres unmarked),-5.51%
22,O=c1oc(-c2ccccc2[N+](=O)[O-])nc2ccccc12,-2.4%
23,C[C@H]1CCC[C@]2(O[C@H](CCO)C[C@@H](O)[C@@H]2O)O1,1.77%

row,Structure (SMILES),"hERG current change (%, negative = inhibition) at 10uM"
1,CC(C)Cn1c(N)c(C(=O)COC(=O)c2cc(-c3ccccc3)nc3ccccc23)c(=O)n(C)c1=O,-8.18%
2,CCOC(=O)/C(CCC[N+](C)(CC)CC)=N\O.[I-],22.2%
3,N=c1c(S(=O)(=O)c2ccc(Br)cc2)cc2c(=O)n3ccccc3nc2n1C1CCCCC1,22.8%
4,COc1ccc(C(=O)N/N=C\C(C)=C\c2ccccc2)cc1OC,-61.4%
5,COc1ccc(Cl)cc1NC(=S)N(Cc1ccc(C(=O)O)cc1)Cc1ccc(OC)c(OC)c1,14.8%
6,CN1CCN(c2ccc(NC(=O)c3ccc(-c4ccccc4F)o3)cc2)CC1,-70%
7,O=C(Oc1ccc2c3c(c(=O)oc2c1)CCC3)c1ccco1,-1.09%
8,Cc1cc(C)cc(C(=O)NCCC(=O)NCc2cc(=O)n(C)c(=O)n2C)c1,20.5%
9,CCCS(=O)(=O)N1CCN(C(=O)COc2ccccc2)CC1,-13.3%
10,Cc1cc(NS(=O)(=O)c2ccc(NC(=S)NC(=O)c3ccc(F)cc3Cl)cc2)no1,3.81%
11,Br.CC(C)(C)C(=O)Cn1c(=N)n(Cc2ccccc2)c2ccccc21,-48.2%
12,CNC(=O)CN(c1cc(OCCOC)c(Cl)cc1Cl)S(=O)(=O)c1ccccc1,4.83%
13,N#CCn1c2ccccc2c2nc3ccccc3nc21,14.4%
14,COC(=O)c1ccc(CN2C(=O)NC(c3ccccc3)(c3ccccc3)C2=O)o1,-31.5%
15,O=Cc1cccn1-c1ncc(Br)cn1,3.67%
16,CCOC(=O)CC(=O)CSCC(=O)Nc1ccc(C)cc1,-6.11%
17,CP(C)(=O)CCP(=O)(c1ccccc1)c1ccccc1,22%
18,CCOCCCNS(=O)(=O)c1ccc(NC(=O)CN2C(=O)c3ccccc3C2=O)cc1,11.6%
19,CCCN(CCC)Cc1c(C(=O)N/N=C/c2ccsc2)nnn1-c1nonc1N,-14.6%
20,CC1(C(=O)N2CCN(c3ccccc3)CC2)CC1(Cl)Cl (centres unmarked),6.47%
